# In all, about 2,900 compounds were measured (“NF-kB SEAP reporter activity, fold change vs agonist alone”: median about 0.99, highest 2% from about 2.6 on). Some of the results follow.
# Tests used:
# [1] = test system: RAW-Dual; assay: NF-kB SEAP reporter activity, fold change vs agonist alone; higher = enhanced NF-kB activity
# Summary of the method: (§1)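 Supernatant from RAW-Dual macrophages was read after 20 hours for IRF by QuantiLuc luminescence and for NF-κB by QuantiBlue absorbance at 620 nm. The cells (50,000 cells/well in DMEM, 384-well plates, 37 °C, 5% CO2) had received 50 nL of library stock by pin tool and, 1 h later, a PRR agonist. Reporter activity is expressed relative to agonist-alone wells as fold change, and wells were flagged cytotoxic if IncuCyte confluency was under 70% of agonist controls in both mask sets.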
# [2] = test system: RAW-Dual; assay: NF-kB SEAP reporter activity, fold change vs agonist alone; cytotoxicity flag (confluency mask): not cytotoxic; higher = enhanced NF-kB activity
# Summary of the method: as §1
# [3] = test system: RAW-Dual; assay: NF-kB SEAP reporter activity, fold change vs agonist alone; cytotoxicity flag (confluency mask): cytotoxic (confluency <70% of control); higher = enhanced NF-kB activity
# Summary of the method: as §1
# [4] = library stock concentration (final ~1000-fold dilution): 10 mM, cytotoxicity flag (confluency mask): not cytotoxic, agonist: Imiquimod (TLR7) […]
# [5] = library stock concentration (final ~1000-fold dilution): 10 mM, cytotoxicity flag (confluency mask): not cytotoxic, agonist: MPLA (TLR4) […]
# [6] = agonist: ODN 1826 (TLR9) 0.5 ug/mL
# [7] = agonist: Pam2CSK4 (TLR2/6) 0.1 ug/mL
# [8] = agonist: Pam3CSK4 (TLR2/1) 0.1 ug/mL
structure (smiles),measurement,setting,value
CCN1CC(CCN2CCOCC2)C(c2ccccc2)(c2ccccc2)C1=O.Cl.O (centres undefined),NF-kB SEAP reporter activity,[1]; [4],0.97
same,NF-kB SEAP reporter activity,[1]; [5],1.04
CC(NC(=O)Cc1cc(F)cc(F)c1)C(=O)NC1C(=O)N(C)c2ccccc2-c2ccccc21 (centres undefined) (library stock concentration (final ~1000-fold dilution): 10 mM),NF-kB SEAP reporter activity,[2]; agonist: LPS (TLR4) 0.1 ug/mL,1.03
same,NF-kB SEAP reporter activity,[2]; [6],1.01
same,NF-kB SEAP reporter activity,[2]; [7],0.655
same,NF-kB SEAP reporter activity,[2]; [8],0.894
CC(NC(=O)Cc1cc(F)cc(F)c1)C(=O)NC1C(=O)N(C)c2ccccc2-c2ccccc21 (centres undefined),NF-kB SEAP reporter activity,[1]; [4],1.37
same,NF-kB SEAP reporter activity,[1]; [5],1.06
C=CCNC1=C2CC(C)CC(OC)C(O)C(C)/C=C(\C)C(OC(N)=O)C(OC)/C=C\C=C(/C)C(=O)NC(=CC1=O)C2=O (centres undefined) (library stock concentration (final ~1000-fold dilution): 10 mM),NF-kB SEAP reporter activity,[3]; agonist: LPS (TLR4) 0.1 ug/mL,0.289
same,NF-kB SEAP reporter activity,[3]; [6],0.221
same,NF-kB SEAP reporter activity,[3]; [7],0.0862
same,NF-kB SEAP reporter activity,[3]; [8],0.182
C=CCNC1=C2CC(C)CC(OC)C(O)C(C)/C=C(\C)C(OC(N)=O)C(OC)/C=C\C=C(/C)C(=O)NC(=CC1=O)C2=O (centres undefined),NF-kB SEAP reporter activity,"[1]; library stock concentration (final ~1000-fold dilution): 10 mM, cytotoxicity flag (confluency mask): cytotoxic (confluency <70% of control), agonist: Imiquimod (TLR7) […]",0.313
same,NF-kB SEAP reporter activity,"[1]; library stock concentration (final ~1000-fold dilution): 10 mM, cytotoxicity flag (confluency mask): cytotoxic (confluency <70% of control), agonist: MPLA (TLR4) […]",0.516
C1CCN2CC3CC(CN4CCCCC34)C2C1.O.O.O.O.O.O=S(=O)(O)O (centres undefined),NF-kB SEAP reporter activity,[1]; [4],0.917
same,NF-kB SEAP reporter activity,[1]; [5],1.12
C1CCN2CC3CC(CN4CCCCC34)C2C1.O.O.O.O.O.O=S(=O)(O)O (centres undefined) (library stock concentration (final ~1000-fold dilution): 10 mM),NF-kB SEAP reporter activity,[2]; agonist: LPS (TLR4) 0.1 ug/mL,0.906
same,NF-kB SEAP reporter activity,[2]; [6],0.919
same,NF-kB SEAP reporter activity,[2]; [7],1.1
same,NF-kB SEAP reporter activity,[2]; [8],0.922
CCC(C)n1ncn(-c2ccc(N3CCN(c4ccc(OCC5COC(Cn6cncn6)(c6ccc(Cl)cc6Cl)O5)cc4)CC3)cc2)c1=O (centres undefined) (library stock concentration (final ~1000-fold dilution): 2 mM),NF-kB SEAP reporter activity,[2]; agonist: LPS (TLR4) 0.1 ug/mL,1.59
same,NF-kB SEAP reporter activity,[2]; [6],1.18
same,NF-kB SEAP reporter activity,[2]; [7],1.41
same,NF-kB SEAP reporter activity,[2]; [8],1.99
CCC(C)n1ncn(-c2ccc(N3CCN(c4ccc(OCC5COC(Cn6cncn6)(c6ccc(Cl)cc6Cl)O5)cc4)CC3)cc2)c1=O (centres undefined),NF-kB SEAP reporter activity,"[1]; library stock concentration (final ~1000-fold dilution): 2 mM, cytotoxicity flag (confluency mask): not cytotoxic, agonist: Imiquimod (TLR7) […]",0.68
same,NF-kB SEAP reporter activity,"[1]; library stock concentration (final ~1000-fold dilution): 2 mM, cytotoxicity flag (confluency mask): not cytotoxic, agonist: MPLA (TLR4) […]",1.39
Cc1cccc(Nc2ccccc2C(=O)O)c1C (library stock concentration (final ~1000-fold dilution): 10 mM),NF-kB SEAP reporter activity,[2]; agonist: LPS (TLR4) 0.1 ug/mL,1.19
same,NF-kB SEAP reporter activity,[2]; [6],0.945
same,NF-kB SEAP reporter activity,[2]; [7],1.13
same,NF-kB SEAP reporter activity,[2]; [8],1.04
Cc1cccc(Nc2ccccc2C(=O)O)c1C,NF-kB SEAP reporter activity,[1]; [4],0.897
same,NF-kB SEAP reporter activity,[1]; [5],0.985
O=C(Nc1cc(C(F)(F)F)ccc1N1CCN(Cc2ccccn2)CC1)c1ccc(-c2ccncc2)o1 (library stock concentration (final ~1000-fold dilution): 10 mM),NF-kB SEAP reporter activity,[2]; agonist: LPS (TLR4) 0.1 ug/mL,1.25
same,NF-kB SEAP reporter activity,[2]; [6],0.731
same,NF-kB SEAP reporter activity,[2]; [7],0.657
same,NF-kB SEAP reporter activity,[2]; [8],0.818
O=C(Nc1cc(C(F)(F)F)ccc1N1CCN(Cc2ccccn2)CC1)c1ccc(-c2ccncc2)o1,NF-kB SEAP reporter activity,[1]; [4],0.609
same,NF-kB SEAP reporter activity,[1]; [5],1.03
Cc1cc(C)c(CNC(=O)c2cc(-c3ccc(N4CCN(C)CC4)nc3)cc3c2c(C)cn3C(C)C)c(=O)[nH]1,NF-kB SEAP reporter activity,[1]; [4],1.17
same,NF-kB SEAP reporter activity,[1]; [5],1.23
Cc1cc(C)c(CNC(=O)c2cc(-c3ccc(N4CCN(C)CC4)nc3)cc3c2c(C)cn3C(C)C)c(=O)[nH]1 (library stock concentration (final ~1000-fold dilution): 10 mM),NF-kB SEAP reporter activity,[2]; agonist: LPS (TLR4) 0.1 ug/mL,1.01
same,NF-kB SEAP reporter activity,[2]; [6],0.192
same,NF-kB SEAP reporter activity,[2]; [7],0.694
same,NF-kB SEAP reporter activity,[2]; [8],0.675
O=C(CNc1ccc2ccccc2c1)N/N=C/c1cc(Br)c(O)c(Br)c1O (library stock concentration (final ~1000-fold dilution): 10 mM),NF-kB SEAP reporter activity,[2]; agonist: LPS (TLR4) 0.1 ug/mL,1.02
same,NF-kB SEAP reporter activity,[2]; [6],0.608
same,NF-kB SEAP reporter activity,[2]; [7],0.591
same,NF-kB SEAP reporter activity,[2]; [8],0.439
O=C(CNc1ccc2ccccc2c1)N/N=C/c1cc(Br)c(O)c(Br)c1O,NF-kB SEAP reporter activity,[1]; [4],0.809
same,NF-kB SEAP reporter activity,[1]; [5],1.09
CC(C)=CCCC(C)(OC1OC(CO)C(O)C(O)C1O)C1CCC2(C)C1C(O)CC1C3(C)CCC(O)C(C)(C)C3C(OC3OC(CO)C(O)C(O)C3OC3OCC(O)C(O)C3O)CC12C (centres undefined) (library stock concentration (final ~1000-fold dilution): 10 mM),NF-kB SEAP reporter activity,[2]; agonist: LPS (TLR4) 0.1 ug/mL,0.93
same,NF-kB SEAP reporter activity,[2]; [6],1.02
same,NF-kB SEAP reporter activity,[2]; [7],0.792
same,NF-kB SEAP reporter activity,[2]; [8],0.975
CC(C)=CCCC(C)(OC1OC(CO)C(O)C(O)C1O)C1CCC2(C)C1C(O)CC1C3(C)CCC(O)C(C)(C)C3C(OC3OC(CO)C(O)C(O)C3OC3OCC(O)C(O)C3O)CC12C (centres undefined),NF-kB SEAP reporter activity,[1]; [4],0.818
same,NF-kB SEAP reporter activity,[1]; [5],0.958
CCN(CC)Cc1ccc2cc(COC(=O)Nc3ccc(C(=O)NO)cc3)ccc2c1.Cl.O (library stock concentration (final ~1000-fold dilution): 10 mM),NF-kB SEAP reporter activity,[2]; agonist: LPS (TLR4) 0.1 ug/mL,7.02
same,NF-kB SEAP reporter activity,[2]; [6],0.922
same,NF-kB SEAP reporter activity,[2]; [7],1.87
same,NF-kB SEAP reporter activity,[2]; [8],1.04
CCN(CC)Cc1ccc2cc(COC(=O)Nc3ccc(C(=O)NO)cc3)ccc2c1.Cl.O,NF-kB SEAP reporter activity,[1]; [4],0.805
same,NF-kB SEAP reporter activity,[1]; [5],1.17
O=C(C(Cc1cccc(C(F)(F)F)c1)NS(=O)(=O)c1cc(F)c2c(c1)CCNC2)N1CCCC1 (centres undefined) (library stock concentration (final ~1000-fold dilution): 10 mM),NF-kB SEAP reporter activity,[2]; agonist: LPS (TLR4) 0.1 ug/mL,1.01
same,NF-kB SEAP reporter activity,[2]; [6],0.731
same,NF-kB SEAP reporter activity,[2]; [7],0.96
same,NF-kB SEAP reporter activity,[2]; [8],0.795
O=C(C(Cc1cccc(C(F)(F)F)c1)NS(=O)(=O)c1cc(F)c2c(c1)CCNC2)N1CCCC1 (centres undefined),NF-kB SEAP reporter activity,[1]; [4],0.965
same,NF-kB SEAP reporter activity,[1]; [5],1.07
CNC(=O)C(NC(=O)C(CC(C)C)C(O)C(=O)NO)C(C)(C)C (centres undefined) (library stock concentration (final ~1000-fold dilution): 10 mM),NF-kB SEAP reporter activity,[2]; agonist: LPS (TLR4) 0.1 ug/mL,1.09
same,NF-kB SEAP reporter activity,[2]; [6],1.01
same,NF-kB SEAP reporter activity,[2]; [7],1.04
same,NF-kB SEAP reporter activity,[2]; [8],1.01
CNC(=O)C(NC(=O)C(CC(C)C)C(O)C(=O)NO)C(C)(C)C (centres undefined),NF-kB SEAP reporter activity,[1]; [4],1.08
same,NF-kB SEAP reporter activity,[1]; [5],1.38

# From the supplement of paper PMC10037445
